These results are taken from the BET-seq Pho4 binding data (Le et al. 2018).

The list shows a part of the results. Values were computed here from the reads of four pooled replicates and scatter widely.

The experiment deals with T1, Pho4 (S. cerevisiae) (UniProt P07270).
T1 sequence: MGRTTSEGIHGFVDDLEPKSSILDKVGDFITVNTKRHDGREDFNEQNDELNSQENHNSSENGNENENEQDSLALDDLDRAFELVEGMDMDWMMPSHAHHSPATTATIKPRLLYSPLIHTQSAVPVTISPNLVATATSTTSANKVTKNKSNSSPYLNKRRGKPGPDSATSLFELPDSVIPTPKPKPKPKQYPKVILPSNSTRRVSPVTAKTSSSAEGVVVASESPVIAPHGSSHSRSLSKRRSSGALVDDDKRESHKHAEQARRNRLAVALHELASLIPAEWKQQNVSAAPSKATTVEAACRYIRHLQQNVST
Description: relative binding free energy (BET-seq); higher = weaker binding. The settings on record: reference: library average.
Take GTAGCCACGTGGTGTT: the “relative binding free energy” value was -0.22 kcal/mol.

With CGGCGCACGTGAAGGG, the “relative binding free energy” value is 0.1 kcal/mol. In the case of GTAGACACGTGTGCGG, the “relative binding free energy” value worked out at 0.02 kcal/mol.

For the sequence GTGAGCACGTGTTCGT, the “relative binding free energy” value was -0.02 kcal/mol. For the sequence TGTGACACGTGCTTTA, the “relative binding free energy” value was -0.1 kcal/mol.

In the case of AGAGTCACGTGATGGT, the “relative binding free energy” value came out at 0.19 kcal/mol. With TTGGACACGTGAAATT, the “relative binding free energy” value was 0.41 kcal/mol.

Turning to CGGTACACGTGTGAGG, the “relative binding free energy” value was determined as 0.21 kcal/mol. Take TCTTTCACGTGGAGTG: the “relative binding free energy” value stood at 0.27 kcal/mol.

Consider AATTTCACGTGAGTCT, for which the “relative binding free energy” value came out at 0.37 kcal/mol. With GCGGACACGTGGGGGC, the “relative binding free energy” value was -0.17 kcal/mol. With AAATGCACGTGGTTAA, the “relative binding free energy” value is -0.03 kcal/mol. For ATCTGCACGTGTGGGC, the “relative binding free energy” value is -0.03 kcal/mol. The figure for CTTGGCACGTGGGAAG is -0.15 kcal/mol; for TGTTTCACGTGATTAC it is 0.3 kcal/mol. ATAGGCACGTGTTGGA: the “relative binding free energy” value was -0.16 kcal/mol. For TTCAGCACGTGAGGTA, the “relative binding free energy” value came out at 0.24 kcal/mol. On to ATTCGCACGTGAGAGG, for which the “relative binding free energy” value is 0.2 kcal/mol. As to CGTTTCACGTGTGCAG, the “relative binding free energy” value turned out to be 0.23 kcal/mol. For the sequence GAGGACACGTGTAGTT, the “relative binding free energy” value turned out to be 0.22 kcal/mol.

On to TATATCACGTGGCTGT, for which the “relative binding free energy” value came out at 0.12 kcal/mol.

As to TAGGGCACGTGTGTCA, the “relative binding free energy” value is -0.09 kcal/mol.

Turning to AGCGGCACGTGGGAGG, the “relative binding free energy” value was -0.14 kcal/mol.

Regarding CGGTACACGTGTGTTA, the “relative binding free energy” value stood at 0.08 kcal/mol. AAGGTCACGTGTTGCA: the “relative binding free energy” value turned out to be 0.11 kcal/mol. Regarding GTCTGCACGTGCTGGG, the “relative binding free energy” value was 0.16 kcal/mol. Regarding TAGTACACGTGTTGTG, the “relative binding free energy” value amounted to 0.01 kcal/mol. With TTAGGCACGTGGGTAC, the “relative binding free energy” value was -0.38 kcal/mol. For GATAACACGTGGGGGC, the “relative binding free energy” value came to 0.02 kcal/mol. For CGTAGCACGTGGTTGT the value was -0.1 kcal/mol.

For GAAGGCACGTGGAATG, the “relative binding free energy” value was found to be 0.07 kcal/mol.

As to TTATACACGTGCGAGG, the “relative binding free energy” value came out at 0.03 kcal/mol. For CTGTGCACGTGATTGG, the “relative binding free energy” value is 0.22 kcal/mol.

Take ATACGCACGTGTTGGT: the “relative binding free energy” value was -0.17 kcal/mol. The figure for GTTTTCACGTGTTTAA is 0.33 kcal/mol; for CATAGCACGTGGGGCG it is -0.23 kcal/mol; for AGGTCCACGTGGGTAG it is -0.07 kcal/mol.

As for TCGGGCACGTGTAGTA, the “relative binding free energy” value was 0.01 kcal/mol.

As for CAGTGCACGTGGCGGG, the “relative binding free energy” value is -0.09 kcal/mol. Consider GTATACACGTGGTTGA, for which the “relative binding free energy” value was -0.03 kcal/mol. For the sequence GATCGCACGTGCAGGT, the “relative binding free energy” value turned out to be 0.19 kcal/mol. For TTAATCACGTGGAGGC the value was 0.07 kcal/mol. As for TATAGCACGTGTTTTG, the “relative binding free energy” value was -0.08 kcal/mol. For CGTGACACGTGTGCGG the value was -0.04 kcal/mol; for ATGGTCACGTGAGTGG, 0.36 kcal/mol. Consider GGCGGCACGTGGCCTG, for which the “relative binding free energy” value is -0.17 kcal/mol.

In the case of TTTTACACGTGTAAAA, the “relative binding free energy” value came to 0.16 kcal/mol.

As for ATGGGCACGTGACTTT, the “relative binding free energy” value was -0.04 kcal/mol. For GGGTACACGTGTGCGA the value was 0.02 kcal/mol; for AACGTCACGTGGCGGG, 0.15 kcal/mol. Turning to CTTGGCACGTGCATTG, the “relative binding free energy” value was -0.1 kcal/mol. Turning to TAATGCACGTGTCGTT, the “relative binding free energy” value worked out at 0.02 kcal/mol. In the case of GAGCGCACGTGAGTTT, the “relative binding free energy” value amounted to 0.24 kcal/mol. Take AGATGCACGTGAGTGA: the “relative binding free energy” value was determined as 0.02 kcal/mol.

As for TTATGCACGTGGCTGA, the “relative binding free energy” value was -0.09 kcal/mol. On to GGAGACACGTGGGTCG, for which the “relative binding free energy” value is -0.11 kcal/mol. In the case of ATGGCCACGTGGGACG, the “relative binding free energy” value was -0.09 kcal/mol.

In the case of CGTGCCACGTGTTAGT, the “relative binding free energy” value was -0.03 kcal/mol.

Take GGTGCCACGTGGGGTT: the “relative binding free energy” value is -0.22 kcal/mol. For AGGAACACGTGGTTTA the value was 0.1 kcal/mol; for GGGAGCACGTGAAGGA, -0.04 kcal/mol; for TGTGCCACGTGTGGTC, -0.03 kcal/mol.

TGTTGCACGTGGCTGT: the “relative binding free energy” value was -0.05 kcal/mol.

Take AAGTACACGTGGTAGG: the “relative binding free energy” value was -0.07 kcal/mol. For the sequence TATAACACGTGGTGAA, the “relative binding free energy” value was -0.05 kcal/mol.

In the case of GGATGCACGTGGGGGG, the “relative binding free energy” value was -0.05 kcal/mol. For GTTCACACGTGCGGTT, the “relative binding free energy” value was found to be 0.22 kcal/mol.

As to TGTTGCACGTGTGTGG, the “relative binding free energy” value was 0.02 kcal/mol. For CGTATCACGTGAAGGT, the “relative binding free energy” value amounted to 0.22 kcal/mol. TGATGCACGTGTTCAA: the “relative binding free energy” value stood at 0.06 kcal/mol. The figure for CTGTTCACGTGGATGG is 0.24 kcal/mol.

For TAGGTCACGTGTTAAT, the “relative binding free energy” value is 0.12 kcal/mol. For GAAATCACGTGAGGGT the value was 0.35 kcal/mol; for GACGTCACGTGGTTGG, 0.16 kcal/mol; for TCAAACACGTGTGTGG, 0.05 kcal/mol.

As to AGTGGCACGTGGGCTG, the “relative binding free energy” value is -0.18 kcal/mol. With TGTAACACGTGGTTGA, the “relative binding free energy” value was -0.06 kcal/mol. GGACGCACGTGGGGGC: the “relative binding free energy” value was -0.17 kcal/mol. For the sequence AATTGCACGTGTGGCG, the “relative binding free energy” value is 0.09 kcal/mol.

As for GTACTCACGTGTGTTG, the “relative binding free energy” value stood at 0.15 kcal/mol. In the case of GAAATCACGTGGTATA, the “relative binding free energy” value stood at 0.29 kcal/mol. TTTTCCACGTGTGTCA: the “relative binding free energy” value stood at 0.27 kcal/mol. For TTTTACACGTGTATGG, the “relative binding free energy” value amounted to 0.15 kcal/mol. In the case of GAGAACACGTGAGTGG, the “relative binding free energy” value stood at 0.31 kcal/mol. With GTTGTCACGTGGCTTT, the “relative binding free energy” value came to 0.07 kcal/mol. The figure for GTTCGCACGTGGCTGT is -0.18 kcal/mol. The figure for AGGGTCACGTGCTATG is 0 kcal/mol; for ATATTCACGTGTGCTG it is 0.06 kcal/mol. In the case of TGCAACACGTGGGATT, the “relative binding free energy” value is -0.02 kcal/mol. For GTTCGCACGTGTATGT, the “relative binding free energy” value came to 0.2 kcal/mol. The figure for AGTGTCACGTGTGAAT is 0.05 kcal/mol; for ATGGGCACGTGCCGTG it is -0.23 kcal/mol. For GGGGCCACGTGGGGTC, the “relative binding free energy” value is -0.1 kcal/mol.

Turning to TTGTGCACGTGAGGCA, the “relative binding free energy” value was 0.17 kcal/mol. In the case of AGATGCACGTGTTGGA, the “relative binding free energy” value was -0.06 kcal/mol. As for TGATTCACGTGAGTCG, the “relative binding free energy” value was 0.41 kcal/mol. For the sequence AACGGCACGTGAAGGG, the “relative binding free energy” value amounted to 0.28 kcal/mol. On to TTGGTCACGTGCATGC, for which the “relative binding free energy” value was found to be 0 kcal/mol.

As for TAATGCACGTGGGAGT, the “relative binding free energy” value is -0.12 kcal/mol. In the case of TGGATCACGTGAGGTA, the “relative binding free energy” value is 0.36 kcal/mol.

For the sequence TCTGTCACGTGTTTCG, the “relative binding free energy” value is 0.09 kcal/mol. With GTTTTCACGTGACATG, the “relative binding free energy” value was determined as 0.27 kcal/mol. With GTAGGCACGTGGAGTA, the “relative binding free energy” value is -0.1 kcal/mol. For the sequence TTTCTCACGTGGGTTT, the “relative binding free energy” value was 0.19 kcal/mol.

Consider ATGACCACGTGTGGGT, for which the “relative binding free energy” value was -0.02 kcal/mol. Take TGTTGCACGTGTTACT: the “relative binding free energy” value stood at 0.02 kcal/mol. For TAGATCACGTGCTGTG the value was -0.07 kcal/mol. Consider TGGTTCACGTGCTGGG, for which the “relative binding free energy” value stood at 0.28 kcal/mol.

As for TATTGCACGTGTCGGA, the “relative binding free energy” value came to 0.01 kcal/mol. Take TATATCACGTGTTTAA: the “relative binding free energy” value came to 0.16 kcal/mol. Turning to CATAACACGTGTGTTT, the “relative binding free energy” value worked out at 0.1 kcal/mol. The figure for AGAGGCACGTGGGAAT is -0.12 kcal/mol; for GTAGCCACGTGATTTG it is 0.21 kcal/mol. Consider TGTAACACGTGGTCAA, for which the “relative binding free energy” value stood at 0.05 kcal/mol.

For the sequence GGATTCACGTGGTATG, the “relative binding free energy” value turned out to be 0.25 kcal/mol.
